# Measurements published in the supplement of paper PMC8728848.
# This is one part of the list.
# B1: 3FTT (Staphylococcus aureus), Q5HCZ5 (protein)
# chain: MTEKEKMLAEKWYDANFDQYLINERARAKDICFELNHTRPSATNKRKELIDQLFQTTTDNVSISIPFDTDYGWNVKLGKNVYVNTNCYFMDGGQITIGDNVFIGPNCGFYTATHPLNFHHRNEGFEKAGPIHIGSNTWFGGHVAVLPGVTIGEGSVIGAGSVVTKDIPPHSLAVGNPCKVVRKIDNDLPSETLNDETIK
# Tests used:
# Assay in all cases: glycan array binding signal (z-score within array); higher = stronger binding
# Conditions in all cases: glycan notation: IUPAC condensed, linker removed
# Fuc(a1-2)Gal = target: Fuc(a1-2)Gal
# In short: (§1)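 The binding signal is a Z-score computed within each array. Data were drawn from 3228 arrays in the Consortium for Functional Glycomics database, restricted to those with a known protein sequence. Scores were averaged over arrays of the same protein sequence at different concentrations or buffers, and over linkers, and negative values can be taken as non-binding.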
# Fuc(a1-2)Gal(b1-3)GalNAc = target: Fuc(a1-2)Gal(b1-3)GalNAc
# In short: as §1
# [1] = target: Fuc(a1-2)Gal(b1-3)GalNAc(a1-3)[Fuc(a1-2)]Gal(b1-4)Glc
# In short: as §1
# [2] = target: Fuc(a1-2)Gal(b1-3)GalNAc(a1-3)[Fuc(a1-2)]Gal(b1-4)GlcNAc
# In short: as §1
# [3] = target: Fuc(a1-2)Gal(b1-3)GalNAc(b1-3)Gal
# In short: as §1
# [4] = target: Fuc(a1-2)Gal(b1-3)GalNAc(b1-3)Gal(a1-4)Gal(b1-4)Glc
# In short: as §1
# [5] = target: Fuc(a1-2)Gal(b1-3)GalNAc(b1-4)[Neu5Ac(a2-3)]Gal(b1-4)Glc
# In short: as §1
# Fuc(a1-2)Gal(b1-3)GlcNAc = target: Fuc(a1-2)Gal(b1-3)GlcNAc
# In short: as §1
# [6] = target: Fuc(a1-2)Gal(b1-3)GlcNAc(b1-2)Man(a1-3)[Fuc(a1-2)Gal(b1-3)GlcNAc(b1-2)Man(a1-6)]Man(b1-4)GlcNAc(b1-4)GlcNAc
# In short: as §1
# [7] = target: Fuc(a1-2)Gal(b1-3)GlcNAc(b1-2)Man(a1-3)[Fuc(a1-2)Gal(b1-3)GlcNAc(b1-2)Man(a1-6)]Man(b1-4)GlcNAc(b1-4)[Fuc(a1-6)]GlcNAc
# In short: as §1
# [8] = target: Fuc(a1-2)Gal(b1-3)GlcNAc(b1-3)Gal(b1-4)Glc
# In short: as §1
# [9] = target: Fuc(a1-2)Gal(b1-3)GlcNAc(b1-3)GalNAc
# In short: as §1
# [10] = target: Fuc(a1-2)Gal(b1-3)GlcNAc(b1-3)[Fuc(a1-3)[Gal(b1-4)]GlcNAc(b1-6)]Gal(b1-4)Glc
# In short: as §1
# [11] = target: Fuc(a1-2)Gal(b1-3)GlcNAc(b1-3)[Gal(b1-4)GlcNAc(b1-6)]Gal(b1-4)Glc
# In short: as §1
# [12] = target: Fuc(a1-2)Gal(b1-3)GlcNAc(b1-3)[Neu5Ac(a2-6)Gal(b1-4)GlcNAc(b1-6)]Gal(b1-4)Glc
# In short: as §1
# [13] = target: Fuc(a1-2)Gal(b1-3)[Fuc(a1-4)]GlcNAc
# In short: as §1
# [14] = target: Fuc(a1-2)Gal(b1-3)[Fuc(a1-4)]GlcNAc(b1-2)Man(a1-3)[Fuc(a1-2)Gal(b1-3)[Fuc(a1-4)]GlcNAc(b1-2)Man(a1-6)]Man(b1-4)GlcNAc(b1-4)GlcNAc
# In short: as §1
# [15] = target: Fuc(a1-2)Gal(b1-3)[Fuc(a1-4)]GlcNAc(b1-3)[Fuc(a1-3)[Gal(b1-4)]GlcNAc(b1-6)]Gal(b1-4)Glc
# In short: as §1
# [16] = target: Fuc(a1-2)Gal(b1-3)[Fuc(a1-4)]GlcNAc(b1-3)[Gal(b1-4)GlcNAc(b1-6)]Gal(b1-4)Glc
# In short: as §1
# Fuc(a1-2)Gal(b1-4)Glc = target: Fuc(a1-2)Gal(b1-4)Glc
# In short: as §1
# Fuc(a1-2)Gal(b1-4)Glc6S = target: Fuc(a1-2)Gal(b1-4)Glc6S
# In short: as §1
# Fuc(a1-2)Gal(b1-4)GlcNAc = target: Fuc(a1-2)Gal(b1-4)GlcNAc
# In short: as §1
# [17] = target: Fuc(a1-2)Gal(b1-4)GlcNAc(b1-2)Man(a1-3)[Fuc(a1-2)Gal(b1-4)GlcNAc(b1-2)Man(a1-6)]Man(b1-4)GlcNAc(b1-4)GlcNAc
# In short: as §1
# [18] = target: Fuc(a1-2)Gal(b1-4)GlcNAc(b1-2)Man(a1-3)[Fuc(a1-2)Gal(b1-4)GlcNAc(b1-2)Man(a1-6)]Man(b1-4)GlcNAc(b1-4)[Fuc(a1-6)]GlcNAc
# In short: as §1
# [19] = target: Fuc(a1-2)Gal(b1-4)GlcNAc(b1-2)[Fuc(a1-2)Gal(b1-4)GlcNAc(b1-4)]Man(a1-3)[Fuc(a1-2)Gal(b1-4)GlcNAc(b1-2)Man(a1-6)]Man(b1-4)GlcNAc(b1-4)GlcNAc
# In short: as §1
# [20] = target: Fuc(a1-2)Gal(b1-4)GlcNAc(b1-3)Gal(b1-4)GlcNAc
# In short: as §1
# [21] = target: Fuc(a1-2)Gal(b1-4)GlcNAc(b1-3)Gal(b1-4)GlcNAc(b1-3)Gal(b1-4)GlcNAc
# In short: as §1
# [22] = target: Fuc(a1-2)Gal(b1-4)GlcNAc(b1-3)GalNAc
# In short: as §1
# [23] = target: Fuc(a1-2)Gal(b1-4)GlcNAc(b1-3)[Fuc(a1-2)Gal(b1-4)GlcNAc(b1-6)]GalNAc
# In short: as §1
# [24] = target: Fuc(a1-2)Gal(b1-4)GlcNAc6S
# In short: as §1
binder,measurement,setting,value
B1,glycan array binding signal (z-score),Fuc(a1-2)Gal,-0.157
same,glycan array binding signal (z-score),Fuc(a1-2)Gal(b1-3)GalNAc,-0.147
same,glycan array binding signal (z-score),[1],-0.267
same,glycan array binding signal (z-score),[2],-0.281
same,glycan array binding signal (z-score),[3],1.06
same,glycan array binding signal (z-score),[4],-0.262
same,glycan array binding signal (z-score),[5],0.035
same,glycan array binding signal (z-score),Fuc(a1-2)Gal(b1-3)GlcNAc,-0.129
same,glycan array binding signal (z-score),[6],-0.034
same,glycan array binding signal (z-score),[7],-0.113
same,glycan array binding signal (z-score),[8],-0.165
same,glycan array binding signal (z-score),[9],-0.129
same,glycan array binding signal (z-score),[10],0.011
same,glycan array binding signal (z-score),[11],0.047
same,glycan array binding signal (z-score),[12],-0.004
same,glycan array binding signal (z-score),[13],-0.073
same,glycan array binding signal (z-score),[14],0.172
same,glycan array binding signal (z-score),[15],-0.156
same,glycan array binding signal (z-score),[16],-0.251
same,glycan array binding signal (z-score),Fuc(a1-2)Gal(b1-4)Glc,-0.056
same,glycan array binding signal (z-score),Fuc(a1-2)Gal(b1-4)Glc6S,-0.133
same,glycan array binding signal (z-score),Fuc(a1-2)Gal(b1-4)GlcNAc,-0.092
same,glycan array binding signal (z-score),[17],0.119
same,glycan array binding signal (z-score),[18],-0.067
same,glycan array binding signal (z-score),[19],0.265
same,glycan array binding signal (z-score),[20],-0.164
same,glycan array binding signal (z-score),[21],0.127
same,glycan array binding signal (z-score),[22],-0.089
same,glycan array binding signal (z-score),[23],-0.055
same,glycan array binding signal (z-score),[24],-0.179
